Data: US20220073584A1 (AstraZeneca / MedImmune, published 2022)
Values belong to the binder of their own block, whether it stands above or below them.

Key:
Test in all cases: cell-based or functional assay
[1] = biological target: T1, human RXFP1 receptor (human, UniProt Q9HBX9 1-757)
T1 sequence (looked up): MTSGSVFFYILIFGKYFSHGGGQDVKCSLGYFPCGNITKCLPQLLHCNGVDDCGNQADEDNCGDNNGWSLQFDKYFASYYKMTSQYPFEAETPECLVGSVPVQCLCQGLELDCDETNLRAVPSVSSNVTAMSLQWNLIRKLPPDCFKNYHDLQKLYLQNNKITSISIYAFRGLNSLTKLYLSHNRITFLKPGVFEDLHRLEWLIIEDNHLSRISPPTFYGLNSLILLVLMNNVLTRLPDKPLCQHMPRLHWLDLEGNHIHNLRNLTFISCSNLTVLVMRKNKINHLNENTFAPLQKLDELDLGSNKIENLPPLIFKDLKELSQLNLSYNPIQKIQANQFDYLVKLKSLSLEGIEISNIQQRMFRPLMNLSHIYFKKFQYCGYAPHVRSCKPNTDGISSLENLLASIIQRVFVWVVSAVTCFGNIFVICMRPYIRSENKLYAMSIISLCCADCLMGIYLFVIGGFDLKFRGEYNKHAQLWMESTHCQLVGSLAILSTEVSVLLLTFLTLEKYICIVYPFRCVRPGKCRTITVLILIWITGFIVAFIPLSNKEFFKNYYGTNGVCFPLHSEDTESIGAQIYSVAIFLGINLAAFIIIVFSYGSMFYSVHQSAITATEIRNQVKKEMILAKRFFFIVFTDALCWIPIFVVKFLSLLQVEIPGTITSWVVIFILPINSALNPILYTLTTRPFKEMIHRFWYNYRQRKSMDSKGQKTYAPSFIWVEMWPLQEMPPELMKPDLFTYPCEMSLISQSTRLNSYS

[2] = biological target: T1, human RXFP1 receptor; remark: listed apart in the source
[3] = biological target: T2, human RXFP2 (human, UniProt Q8WXD0 1-754)
T2 sequence (looked up): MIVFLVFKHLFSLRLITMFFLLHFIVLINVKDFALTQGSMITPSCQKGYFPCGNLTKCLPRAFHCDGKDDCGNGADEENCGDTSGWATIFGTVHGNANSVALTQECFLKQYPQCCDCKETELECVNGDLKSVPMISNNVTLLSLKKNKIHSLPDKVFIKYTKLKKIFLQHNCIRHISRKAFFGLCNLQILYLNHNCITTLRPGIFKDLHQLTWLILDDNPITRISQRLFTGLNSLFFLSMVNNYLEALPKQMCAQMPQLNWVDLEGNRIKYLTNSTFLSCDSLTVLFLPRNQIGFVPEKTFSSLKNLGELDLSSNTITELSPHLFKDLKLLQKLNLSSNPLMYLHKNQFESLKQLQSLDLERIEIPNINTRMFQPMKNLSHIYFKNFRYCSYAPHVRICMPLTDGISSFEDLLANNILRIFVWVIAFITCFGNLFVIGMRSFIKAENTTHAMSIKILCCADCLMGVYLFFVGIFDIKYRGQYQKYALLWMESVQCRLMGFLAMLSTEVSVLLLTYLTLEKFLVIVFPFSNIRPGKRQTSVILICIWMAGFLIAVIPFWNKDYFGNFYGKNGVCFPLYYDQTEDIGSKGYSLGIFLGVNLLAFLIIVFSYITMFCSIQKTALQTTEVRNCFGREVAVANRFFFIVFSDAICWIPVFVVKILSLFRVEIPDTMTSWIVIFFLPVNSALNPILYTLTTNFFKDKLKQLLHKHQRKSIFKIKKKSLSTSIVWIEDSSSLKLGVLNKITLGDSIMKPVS

[4] = biological target: T3, mouse RXFP1 receptor (mouse, UniProt Q6R6I7 1-758)
T3 sequence (looked up): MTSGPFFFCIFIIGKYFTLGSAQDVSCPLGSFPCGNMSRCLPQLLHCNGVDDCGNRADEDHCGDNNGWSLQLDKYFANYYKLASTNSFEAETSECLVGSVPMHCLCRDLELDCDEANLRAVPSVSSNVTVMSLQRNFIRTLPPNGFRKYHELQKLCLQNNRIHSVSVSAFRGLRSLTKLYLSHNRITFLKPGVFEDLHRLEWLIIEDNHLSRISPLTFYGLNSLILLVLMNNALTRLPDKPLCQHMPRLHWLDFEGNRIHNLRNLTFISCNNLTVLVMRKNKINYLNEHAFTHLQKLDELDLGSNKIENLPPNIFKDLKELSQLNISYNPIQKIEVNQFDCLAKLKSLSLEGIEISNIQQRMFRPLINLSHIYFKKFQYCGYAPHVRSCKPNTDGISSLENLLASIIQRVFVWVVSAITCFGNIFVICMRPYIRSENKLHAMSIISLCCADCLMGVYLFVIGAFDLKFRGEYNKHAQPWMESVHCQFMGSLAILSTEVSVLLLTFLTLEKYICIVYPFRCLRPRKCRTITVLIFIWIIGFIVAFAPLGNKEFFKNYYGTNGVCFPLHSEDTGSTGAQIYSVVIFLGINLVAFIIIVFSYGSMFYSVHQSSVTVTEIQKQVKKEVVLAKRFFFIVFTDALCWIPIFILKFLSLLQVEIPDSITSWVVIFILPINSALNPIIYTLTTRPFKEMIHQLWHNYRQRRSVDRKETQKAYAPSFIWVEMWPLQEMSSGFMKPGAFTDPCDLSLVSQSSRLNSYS

- EC50 (M), stimulation of cAMP production (HitHunter cAMP assay) in CHO-K1 RXFP1 Gs cells [1]: 9.32e-10 M
B1: Fc_hRLX2_4-15AA (Fc fusion)
chain: [no letters for human IgG1 Fc]GGSPQLYSALANKCCHVGCTKRSLARFCGGGGSGGGGSGGGGSSWMEEVIKLCGRELVRAQIAICGMSTWS

- EC50 (M), stimulation of cAMP production (HitHunter cAMP assay) in CHO-K1 RXFP1 Gs cells [1]: 9.84e-10 M
- hRXFP1 EC50 (M), cAMP HTRF assay in CHO-K1 RXFP1 Gs cells [2]: 1.84e-09 M
- hRXFP2 EC50 (M), cAMP HTRF assay in CHO-K1 RXFP2 Gs cells [3]: > 9.32e-06 M
- mRXFP1 EC50 (M), cAMP HTRF assay in CHO-K1 mRXFP1 Gs cells [4]: 1.51e-09 M
B2: Fc_hRLX2_15-15AA (Fc fusion)
chain: [no letters for human IgG1 Fc]GGGGSGGGGSGGGGSQLYSALANKCCHVGCTKRSLARFCGGGGSGGGGSGGGGSSWMEEVIKLCGRELVRAQIAICGMSTWS
